Results from paper PMC4336329 (PLoS ONE, 2015).
The whole screen tested about 310,000 compounds, of which about 2,200 (0.71%) showed an effect of 50% or more. Effects have a minus sign here. This is one part of the list.

target: human ether-à-go-go-related gene (hERG) potassium channel (human, UniProt Q12809); experiment: primary screen, population patch clamp on CHO cells stably expressing hERG
Sequence (Q12809 whole entry, looked up): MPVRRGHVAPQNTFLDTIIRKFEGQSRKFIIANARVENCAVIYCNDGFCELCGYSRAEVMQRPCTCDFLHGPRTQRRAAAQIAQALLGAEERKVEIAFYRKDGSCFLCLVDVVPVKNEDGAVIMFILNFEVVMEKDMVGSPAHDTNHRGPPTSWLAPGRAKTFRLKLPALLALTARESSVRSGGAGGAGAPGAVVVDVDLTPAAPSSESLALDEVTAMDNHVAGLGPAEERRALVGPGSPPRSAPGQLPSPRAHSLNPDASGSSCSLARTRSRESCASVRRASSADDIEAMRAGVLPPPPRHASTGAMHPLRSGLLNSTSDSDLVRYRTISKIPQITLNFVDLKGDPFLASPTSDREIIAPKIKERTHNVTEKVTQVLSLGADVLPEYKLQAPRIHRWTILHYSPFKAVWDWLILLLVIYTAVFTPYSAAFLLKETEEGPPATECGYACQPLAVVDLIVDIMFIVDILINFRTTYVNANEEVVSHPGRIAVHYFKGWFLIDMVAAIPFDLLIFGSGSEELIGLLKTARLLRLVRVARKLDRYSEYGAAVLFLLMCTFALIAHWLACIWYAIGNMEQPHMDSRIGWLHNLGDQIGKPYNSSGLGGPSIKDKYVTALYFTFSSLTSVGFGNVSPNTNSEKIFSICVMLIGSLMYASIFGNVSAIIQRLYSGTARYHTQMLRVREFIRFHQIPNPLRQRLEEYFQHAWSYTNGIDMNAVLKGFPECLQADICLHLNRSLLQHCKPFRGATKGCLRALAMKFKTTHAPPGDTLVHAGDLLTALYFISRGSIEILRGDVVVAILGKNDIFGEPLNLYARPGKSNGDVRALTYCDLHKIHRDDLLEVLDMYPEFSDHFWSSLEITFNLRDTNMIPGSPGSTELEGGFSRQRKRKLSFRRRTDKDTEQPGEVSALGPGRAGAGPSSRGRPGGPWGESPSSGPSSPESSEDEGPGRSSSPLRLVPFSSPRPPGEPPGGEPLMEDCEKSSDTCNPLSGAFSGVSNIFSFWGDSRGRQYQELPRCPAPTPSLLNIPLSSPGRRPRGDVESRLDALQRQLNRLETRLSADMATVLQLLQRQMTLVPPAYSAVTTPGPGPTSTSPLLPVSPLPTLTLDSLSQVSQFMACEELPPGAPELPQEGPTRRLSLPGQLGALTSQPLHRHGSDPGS

Compound	hERG current change (%, negative = inhibition) at 1uM
CN(Cc1c(F)cccc1Cl)c1ccc(S(=O)(=O)N2CCOCC2)cn1	9.85%
CC(C)Nc1nc2n(c(=O)n1)CCN2C(C)C	7.58%
COc1ccc(NC2CCCN(C(=O)c3ccc4nc(C)c(C)nc4c3)C2)cc1OC (centres unmarked)	8.28%
COc1ccc(C(C)(C)C)cc1NC(=O)COC(=O)c1cc(SC)ccc1Cl	6.72%
COc1ccc(C(=O)N2CCOCC2)cc1S(=O)(=O)N1CCCc2ccccc21	-5.13%
CCn1nnc(NC(=O)C(C)Oc2ccc(Cl)cc2Cl)n1 (centres unmarked)	10.5%
S=C(NCc1ccccn1)Nc1ccc(Cl)c(Cl)c1	11.1%
CC(C)(OC(=O)c1ccc(C#N)cc1)c1cc2ccccc2c(=O)o1	-15.3%
CCc1ccc(N=C2NC(=O)/C(=C/c3cc(OC)c(O)c(OC)c3)S2)cc1	15.2%
Cc1ccccc1N(C(=O)CNC(=O)c1ccco1)C(C(=O)NC1CCCCC1)c1cccnc1 (centres unmarked)	7.38%
O=C(O)CCc1nnc2n(Cc3ccc(F)cc3)c(=O)c3ccccc3n12	10.3%
Cc1ccc(/C=N/NC(=O)CSc2nc3ccccc3o2)cc1	9.37%
O=C(N=C1N=C2C=CC=CN2Cc2ccccc21)c1ccc(S(=O)(=O)N2CCOCC2)cc1	10.2%
CCn1c2ccccc2c2cc(NC(C)=O)ccc21	6.39%
CC1CCCN(S(=O)(=O)c2ccc3c(c2)c(=O)nc2ccc(Cl)cn23)C1 (centres unmarked)	6.42%
CCn1c(=O)cc(NC2=NCC(C)CN2c2cccc(Cl)c2)n(C)c1=O (centres unmarked)	-7%
Cc1nn(C)c(Oc2cccc(Cl)c2)c1C=O	9.61%
CN(C)CCNC(=O)c1sc2cccc(F)c2c1Cl	8.33%
Cc1ccc(C)n1-c1sc2c(c1C#N)CCCC2	12.5%

Compound	hERG current change (%, negative = inhibition) at 1uM
CC(C)(C)NC(=O)COc1ccc(CNc2ncn[nH]2)cc1	10.3%
O=C(O)c1cc([N+](=O)[O-])ccc1C(=O)Nc1cccc([N+](=O)[O-])c1	9.27%
CCc1nc2ccccc2c(=O)n1-c1ccccc1OC	7.62%
Cc1ccc(NC(=O)CN2C(=O)N/C(=C/c3cccn3-c3ccc(C(=O)O)cc3)C2=O)cc1	18.9%
CC(=O)Nc1cccc(N=NN2CCCCC2)c1	7.43%
Cc1[nH]c2ccccc2c1CCNCc1cccnc1.Cl	12.9%
c1cncc(CN=C2Nc3ccccc3CS2)c1	6.22%
COc1ccc(OC)c(Nc2ncnc3ccc(Br)cc23)c1	12.3%
C#CCOCCOCCOCCNc1nc(N2CCN(C(=O)[C@H]([C@@H](C)O)n3cc(CCCC[NH3+])nn3)CC2)nc(N2CCN(C(=O)[C@H]([C@@H](C)CC)n3cc(CCCC[NH3+])nn3)CC2)n1.[Cl-]	14.2%
COCc1cc(CN2CCCC(C(=O)Nc3ccc(-c4ccco4)cc3)C2)ccc1OC (centres unmarked)	3.79%
Cc1ccc(C2(C)NC(=O)N(CC(=O)Nc3cccnc3Cl)C2=O)cc1 (centres unmarked)	15.2%
CC1(C)c2[nH]c3ccccc3c2C[C@@H]2C(=O)N(Cc3ccco3)C(=O)N21	0.515%
COC(=O)c1sccc1-c1ccc(/C=N/OCc2c(Cl)cccc2Cl)o1	0.955%
COc1ccccc1NC(=S)N1CCOCC1	16%
CCCNC(=O)CC(NS(=O)(=O)c1ccc(Cl)cc1)c1ccco1 (centres unmarked)	-5.47%
COc1ccc(OCCN2C(=O)NC3(CCc4ccccc4C3)C2=O)cc1 (centres unmarked)	-6.02%
COc1ccc(N2C(=O)/C(=C/N(C)C)NC2=S)cc1	16.8%
O=C(CSc1cccc[n+]1[O-])NN(c1ccccc1)c1ccccc1	13.5%
COc1ccccc1N1C(=O)c2ccccc2NC1c1ccc(O)cc1 (centres unmarked)	13.1%

Compound	hERG current change (%, negative = inhibition) at 1uM
COc1ccc(-c2[nH]ncc2CN(CCO)CC23CC4CC(CC(C4)C2)C3)c(OC)c1	11%
Cl.OC(CC#CCN1CCOCC1)(c1ccccc1)c1ccccc1	9.39%
CCOC(=O)c1oc2cc(O)cc(O)c2c(=O)c1OCc1ccccc1	12.8%
O=C(CSc1ncn[nH]1)Nc1c(Br)cc([N+](=O)[O-])cc1Br	8.19%
CCOC(=O)C1CCCN(c2nc3c(C)cccn3c(=O)c2/C=C(\C#N)C(=O)NCc2ccco2)C1 (centres unmarked)	4.48%
O=C(/C=C\c1ccccc1[N+](=O)[O-])Nc1ccccc1	13.6%
COc1ccc(Cl)cc1NC(=O)CC(=O)Nc1cc(Cl)ccc1OC	15.3%
CC(C)C(=O)NC(NC(=S)Nc1cccc2cccnc12)C(Cl)(Cl)Cl (centres unmarked)	17.4%
CC(C)=C1C2CCC1C1C(=O)N(CCc3ccccc3)C(=O)C21 (centres unmarked)	9.06%
COc1ccc(-n2c(=O)c(NC(=O)c3ccccc3)c3n(c2=S)CCCCC3)cc1	17.6%
CC(C)(C)OC(=O)N1CCC[C@H]1C(=O)Nc1ccc(Br)cc1	14.2%
CN(C)c1ccc(/C=N/NC(=O)C(O)c2ccc(Br)cc2)cc1 (centres unmarked)	10.8%
Cc1cccc(OC(=O)n2c(=S)oc3cc(Cl)ccc32)c1	14.1%
CCCn1c(SCC(=O)NC(=O)NC(C)(C)C)n[nH]c1=O	18.6%
CC(C)CCN1CCN(Cc2cn[nH]c2C2CCCCC2)CC1CCO (centres unmarked)	12.8%
CC(Cc1ccsc1)NC(=O)CCc1nnc(CCc2ccccc2)o1 (centres unmarked)	15.1%
CC(=NCCN(C)C)c1c(O)n(Cc2ccccc2)c(=O)[nH]c1=O	9.59%
Cc1onc(-c2ccccc2)c1C(=O)NCc1cccs1	4.18%
